Measured values taken from PubChem BioAssay AID1030 (National Center for Advancing Translational Sciences (NCATS), 2008).
The whole screen tested about 220,000 compounds, of which about 16,000 (7.3%) were called active. Inconclusive results, whose numbers are uncertain, are shown with a selection of clear calls. Calls come from the whole dose curve; as a rule, active = well fitted inhibition curve with a large enough effect (not every such curve was filed as active); inconclusive = small, poorly fitted or top-dose-only effect, or another doubt; inactive = no such curve, though single readings can be large or run the other way. No potency is given beside an inconclusive call; the fits are too rough.

What follows are molecules tested against Aldehyde dehydrogenase 1A1 (Homo sapiens) (UniProt P00352) (assay: qHTS Assay for Inhibitors of Aldehyde Dehydrogenase 1 (ALDH1A1)). Settings: Purified ALDH1A1, NADH fluorescence, propionaldehyde substrate; series mostly up to 75.3 µM; activity, negative = inhibition: at the top concentration.
Chain of UniProt P00352 (P00352 whole entry, looked up): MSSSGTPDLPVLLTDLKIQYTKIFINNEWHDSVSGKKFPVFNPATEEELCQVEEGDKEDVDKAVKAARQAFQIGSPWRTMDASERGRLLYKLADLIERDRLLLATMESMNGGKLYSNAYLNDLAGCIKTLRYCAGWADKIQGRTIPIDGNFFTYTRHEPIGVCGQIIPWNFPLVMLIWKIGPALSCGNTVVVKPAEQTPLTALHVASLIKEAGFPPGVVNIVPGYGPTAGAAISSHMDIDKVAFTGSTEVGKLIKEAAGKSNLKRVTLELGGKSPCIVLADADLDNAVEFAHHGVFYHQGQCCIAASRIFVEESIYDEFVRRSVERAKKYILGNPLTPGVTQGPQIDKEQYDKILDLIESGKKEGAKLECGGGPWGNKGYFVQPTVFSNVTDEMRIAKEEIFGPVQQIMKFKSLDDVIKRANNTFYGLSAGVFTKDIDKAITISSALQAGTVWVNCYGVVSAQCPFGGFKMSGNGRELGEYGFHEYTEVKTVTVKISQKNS
Potency is the fitted concentration of half-maximal effect; tags give direction and shape of the fitted curve.
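Throughout, for activity, negative = inhibition: plate controls were no enzyme wells and a reference inhibitor.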

Row | SMILES | Potency | activity, negative = inhibition
1 | N#Cc1c(NC(=O)C2CC(Cl)=CCC2C(=O)O)sc2c1CCCC2 (stereo not drawn) | active: 17.8 µM | –
2 | Cc1ccc(N2CC(C(=O)NCCc3ccc(S(N)(=O)=O)cc3)CC2=O)cc1 (stereo not drawn) | inconclusive [inhibitor, single point] | –
3 | Cc1ccc(Cn2nnc3c(=O)n(CC(=O)OCc4ccccc4)cnc32)cc1 | inconclusive [inhibitor, single point] | –
4 | Cc1ccc(CNCC2CCCO2)s1 (stereo not drawn) | – | inactive: -16.2%
5 | Cc1cc(=O)[nH]c(N/N=C/c2sccc2C)n1 | – | inactive: 3.3%
6 | CS(=O)(=O)NNC(=O)c1cc2cc3ccccc3nc2s1 | inconclusive [inhibitor, partial curve] | –
7 | Cc1cccc(NC(=S)NCC(c2cccnc2)N2CCOCC2)c1 (stereo not drawn) | – | inactive: -6.59%
8 | COc1cc(/C=C(/C#N)c2nc3ccccc3[nH]2)ccc1OC(=O)c1ccco1 | inconclusive [inhibitor, single point] | –
9 | O=C(Cc1cccs1)N1CCN(S(=O)(=O)c2ccc(Br)cc2)CC1 | inconclusive [inhibitor, single point] | –
10 | Cc1ccc(/C=C/C(=O)Nc2nc3ccccc3[nH]2)cc1 | – | inactive: 10.3%
11 | O=C1OC(c2ccccc2)c2ccccc21 (stereo not drawn) | active: 14.1 µM | –
12 | Cc1cc(C=O)c(C)n1-c1ccc(Cl)c(C(=O)O)c1 | inconclusive [inhibitor, partial curve, poor fit] | –
13 | CCCCn1c(O)c(N=NC(=O)c2ccncc2)c2cc(Br)ccc21 | active: 7.94 µM | –
14 | COC(=O)c1sccc1NC(=O)c1ccc2c(c1)OCO2 | inconclusive [inhibitor, partial curve] | –
15 | COc1ccc(C(=O)NC(=S)N2CCCc3ccccc32)cc1OC | inconclusive [inhibitor, single point] | –
16 | O=C(O)c1ccc(CSc2n[nH]c(-c3ccco3)n2)cc1 | inconclusive [inhibitor, single point] | –
17 | COC(=O)c1c(-c2cccc(C)c2)csc1NC(=O)C1CCCO1 (stereo not drawn) | inconclusive [inhibitor, single point] | –
18 | Cc1cc(N/N=C/c2ccccc2F)c2ccccc2n1 | inconclusive [inhibitor, partial curve] | –
19 | CCN(C(=O)CSc1nc2nc(C)cc(C)n2n1)c1ccccc1 | inconclusive [inhibitor, single point] | –
20 | O=C(CN1C2=NCCN2c2ccccc21)c1cccs1 | inconclusive [inhibitor, single point] | –
21 | Cc1cccc(-n2c(SCC(=O)N3CC(=O)Nc4ccccc43)nc3ccccc3c2=O)c1C | – | inactive: -7.97%
22 | COC(=O)c1ccc(NC(=O)CN2C(=O)C3C4C=CC(C4)C3C2=O)cc1 (stereo not drawn) | – | inactive: 3.06%
23 | COCCNC(=O)COC(=O)c1cccnc1SC | – | inactive: -1.46%
24 | COc1ccc(NC(=S)c2ccc(N(C)C)cc2)cc1 | inconclusive [inhibitor, single point] | –

Row | SMILES | Potency | activity, negative = inhibition
25 | CCc1nn(CC(=O)NCCCN2CCc3ccccc3C2)c(=O)c2cc3sccc3n12 | inconclusive [inhibitor, single point] | –
26 | CC(=O)N1CCn2c3c(c(=O)c4cc(C)ccc42)CCC31 (stereo not drawn) | inconclusive [inhibitor, partial curve] | –
27 | COc1cccc(C2CC(c3cccs3)=NN2C(=O)CSc2nc3ccccc3o2)c1OC (stereo not drawn) | inconclusive [inhibitor, single point] | –
28 | CNCCCOc1ccc(C(C)(C)c2ccccc2)cc1 | inconclusive [inhibitor, single point] | –
29 | O=C(CCC1CCCCC1)Nc1c2c(nn1-c1ccc(F)cc1)CS(=O)C2 (stereo not drawn) | inconclusive [inhibitor, full curve, poor fit] | –
30 | COC(=O)C1=CC(C(=O)c2cccs2)=NN(c2ccc(OC)cc2)C1C(=O)OC (stereo not drawn) | – | inactive: -8.12%
31 | O=C(CCS(=O)(=O)c1ccccc1)Nc1cccc2c1C(=O)NC2=O | inconclusive [inhibitor, single point] | –
32 | COCCn1c(Br)nc2c1c(=O)n(C)c(=O)n2C | inconclusive [inhibitor, single point] | –
33 | Cn1c(SCC(=O)N2c3ccccc3Sc3ccccc32)nnc1-c1ccco1 | inconclusive [inhibitor, single point] | –
34 | COc1ccc(N2CCN(C(=O)c3ccc(OCC4CCCO4)cc3)CC2)cc1 (stereo not drawn) | – | inactive: 5.51%
35 | Cc1ccn2cc(CCNC(=O)Cc3cccs3)nc2c1 | inconclusive [inhibitor, single point] | –
36 | Cc1cc(C)nc(N/C(=N\S(=O)(=O)Cc2ccccc2)Nc2ccccc2Br)n1 | inconclusive [inhibitor, single point] | –
37 | O=C(Nc1cccc(-c2csc(-c3ccccc3)n2)c1)c1cccs1 | – | inactive: -2.09%
38 | O=C1CC(SCCc2nc3ccccc3[nH]2)C(=O)N1c1ccc(Cl)cc1 (stereo not drawn) | inconclusive [inhibitor, single point] | –
39 | CC(C)CCOc1ncnc2c1sc1nc3c(cc12)CSC(C)(C)C3 | active: 1.12 µM | –
40 | Cc1ccc(Nc2nc(-c3c(C)nc4ncccn34)cs2)cc1 | inconclusive [inhibitor, partial curve] | –
41 | O=S(=O)(c1ccc(S(=O)(=O)N2CCN(Cc3ccccc3)CC2)cc1)N1CCOCC1 | – | inactive: 14.3%
42 | COc1ccccc1NC(=S)NCCc1ccccc1 | – | inactive: -12.4%
43 | Cc1[nH]n(-c2nc(-c3ccccc3F)cc(=O)[nH]2)c(=O)c1CCO | – | inactive: 8.7%
44 | CCCN(CCC)C(=O)Cn1c(=O)c2sccc2n2c(=S)sc(-c3ccccc3)c12 | inconclusive [inhibitor, single point] | –
45 | Cc1cc(=O)n(CC=C(Cl)Cl)c2ccccc12 | inconclusive [inhibitor, partial curve] | –
46 | Cc1ccc(N(CC(=O)O)S(C)(=O)=O)cc1 | – | inactive: 10.8%
47 | COC(=O)C1=C(C)OC(N)=C(C#N)C1c1c(C)nn(-c2ccccc2)c1Cl (stereo not drawn) | – | inactive: -7.04%
48 | CCC(=O)N(CCC1(c2ccccc2OC)CCOC(C(C)C)C1)Cc1ccco1 (stereo not drawn) | – | inactive: 3.4%
